About 2,200 (0.71%) of roughly 310,000 compounds showed an effect of 50% or more. The effect is printed as a negative number. This is one part of the list.
target: human ether-à-go-go-related gene (hERG) potassium channel (human, UniProt Q12809); assay: primary screen, population patch clamp on CHO cells stably expressing hERG
Sequence (Q12809 whole entry, looked up): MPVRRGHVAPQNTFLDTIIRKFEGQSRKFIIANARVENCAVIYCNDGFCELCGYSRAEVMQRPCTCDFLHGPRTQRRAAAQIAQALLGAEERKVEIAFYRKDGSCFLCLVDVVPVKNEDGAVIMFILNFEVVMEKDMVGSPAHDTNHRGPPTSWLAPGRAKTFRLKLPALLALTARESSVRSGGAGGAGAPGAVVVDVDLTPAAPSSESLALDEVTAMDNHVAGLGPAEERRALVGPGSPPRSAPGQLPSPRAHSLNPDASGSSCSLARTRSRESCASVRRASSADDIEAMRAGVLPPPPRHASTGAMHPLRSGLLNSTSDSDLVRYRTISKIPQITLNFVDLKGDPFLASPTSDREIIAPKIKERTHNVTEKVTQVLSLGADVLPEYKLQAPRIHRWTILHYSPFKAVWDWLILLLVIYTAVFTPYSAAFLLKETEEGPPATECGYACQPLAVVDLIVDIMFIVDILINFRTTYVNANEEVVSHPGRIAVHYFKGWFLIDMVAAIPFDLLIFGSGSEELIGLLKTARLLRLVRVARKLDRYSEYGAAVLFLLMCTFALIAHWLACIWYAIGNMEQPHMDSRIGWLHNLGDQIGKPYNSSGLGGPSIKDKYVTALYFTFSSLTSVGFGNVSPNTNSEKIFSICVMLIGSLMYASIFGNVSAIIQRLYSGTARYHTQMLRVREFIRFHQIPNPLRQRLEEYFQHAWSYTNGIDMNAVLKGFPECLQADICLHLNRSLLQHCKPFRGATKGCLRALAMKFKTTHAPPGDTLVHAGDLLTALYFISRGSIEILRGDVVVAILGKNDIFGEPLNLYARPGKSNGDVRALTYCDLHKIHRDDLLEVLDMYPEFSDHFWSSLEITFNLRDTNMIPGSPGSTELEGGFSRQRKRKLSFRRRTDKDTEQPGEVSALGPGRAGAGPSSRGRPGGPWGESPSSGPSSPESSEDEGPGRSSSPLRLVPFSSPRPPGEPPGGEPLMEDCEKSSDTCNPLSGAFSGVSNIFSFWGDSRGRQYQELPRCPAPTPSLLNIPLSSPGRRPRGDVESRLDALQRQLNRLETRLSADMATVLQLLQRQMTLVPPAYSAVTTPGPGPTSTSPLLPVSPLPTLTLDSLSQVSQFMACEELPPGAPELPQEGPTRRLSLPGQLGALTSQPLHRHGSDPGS

Going from `COc1ccc(Nc2cc(Sc3ccc(OC)cc3)ncn2)cc1` to `Cc1ccc(Sc2c(C)nn(C(=O)CNS(=O)(=O)c3ccc(F)cc3)c2C)cc1`, the “hERG current change (%, negative = inhibition) at 1uM” value falls from 8.88% to 4.31%.

First: C/C=C/C(=O)Nc1cccc(C2=NOC3(C2)C[C@@H](C(N)=O)N(C(=O)/C(C)=C/C)C3)c1 (stereo partly drawn)
Second: CC1(C)C(=O)OC(/C=C\c2cccc([N+](=O)[O-])c2)C(C)(C)C1=O (stereo not drawn)
The “hERG current change (%, negative = inhibition) at 1uM” value of the first is lower: 7.3% for the first, 9.5% for the second.

First: CC(C)(CNC(=O)c1ccc(NS(=O)(=O)c2ccc(Br)cc2)cc1)N1CCOCC1
Second: O=C(Nc1ccc(F)cc1)c1ccc(S(=O)(=O)NCc2cccnc2)cc1
The “hERG current change (%, negative = inhibition) at 1uM” value of the first is lower: 0.502% for the first, 3.07% for the second.

Compared with `Cc1ccccc1-n1c(Cn2c(=O)sc3ccccc32)nnc1SCC(=O)N1CCOCC1`, `CN1CCN(CCC(=O)N2c3ccccc3Sc3ccc(Cl)cc32)CC1` is lower in “hERG current change (%, negative = inhibition) at 1uM” value: 8.69% for the first, -14.2% for the second.

First: O=C(c1ccc(CS(=O)(=O)c2ccccc2)o1)N1CCN(c2ccccc2)CC1
Second: O=C(NNC(=O)C1CC(=O)N(Cc2ccccc2)C1)c1ccc(F)cc1 (stereo not drawn)
The “hERG current change (%, negative = inhibition) at 1uM” value of the first is lower: 5.72% for the first, 8.85% for the second.

Compared with `COc1ccc2ccccc2c1CNC(=O)CC1C(=O)NCCN1CC(C)(C)C` (stereo not drawn), `COc1cc(/C=C\C(=O)NCc2ccc3[nH]c(C)cc3c2)cc(OC)c1OC` is higher in “hERG current change (%, negative = inhibition) at 1uM” value: 6.64% for the first, 19.7% for the second.

Compared with `Cc1ccc(C(=O)N[C@H](C(=O)OCc2cc(=O)n3c(n2)sc2ccccc23)C(C)C)cc1`, `Cc1[nH]n(-c2ccccc2)c(=O)c1CCOC(=O)c1ccc(C(F)(F)F)cc1` is higher in “hERG current change (%, negative = inhibition) at 1uM” value: 6.29% for the first, 17.8% for the second.

First: Brc1ccc(-c2nn3c(Cc4ccccc4)nnc3s2)o1
Second: Fc1cccc(Cl)c1CSc1ccc2nnc(-c3ccccn3)n2n1
The “hERG current change (%, negative = inhibition) at 1uM” value of the first is higher: 7.52% for the first, 1.37% for the second.

First: CN(C(=O)CN1C(=O)/C(=C/c2ccccc2Cl)SC1=S)C1CCS(=O)(=O)C1 (stereo not drawn)
Second: CN(CC(=O)Nc1ccccc1Cl)C(=O)COC(=O)/C=C/c1ccccc1
The “hERG current change (%, negative = inhibition) at 1uM” value of the first is higher: 15% for the first, 8.3% for the second.

First: CCn1cc(C(=O)N[C@H](C(=O)NC(C)(C)CO)C(C)C)c(=O)c2cc3c(cc21)OCO3
Second: CCCCN(Cc1cc2cccc(C)c2[nH]c1=O)S(C)(=O)=O
The “hERG current change (%, negative = inhibition) at 1uM” value of the first is higher: 14.3% for the first, 11.7% for the second.

Going from `C[C@@H]1NC(=O)[C@@]2(C)[C@@H](c3ccccc3)[C@H]3COc4ccc(Cl)cc4[C@@H]3N2C1=O` to `O=C1Nc2ccccc2C(=O)N2[C@H](c3ccc(F)cc3)[C@@H]3C(=O)N(Cc4ccccc4)C(=O)[C@@H]3[C@H]12`, the “hERG current change (%, negative = inhibition) at 1uM” value falls from 14.1% to 4.1%.

First: Cc1cc(C)nc(NC(=O)c2ccc(Cl)c([N+](=O)[O-])c2)n1
Second: Cc1csc(Sc2ccc(C(=O)OCC(=O)Nc3ccc(F)cc3[N+](=O)[O-])cc2[N+](=O)[O-])n1
The “hERG current change (%, negative = inhibition) at 1uM” value of the first is higher: 2.43% for the first, -0.541% for the second.

First: C/C(=N\OCC(=O)NCC(F)(F)F)c1cc2ccccc2o1
Second: CN(Cc1ccccc1)C(=O)CSc1nc2c(c(C(F)(F)F)n1)CCc1ccccc1-2
The “hERG current change (%, negative = inhibition) at 1uM” value of the first is lower: 1.4% for the first, 15.7% for the second.

Going from `CN(CC(=O)Nc1cccc(F)c1)C(=O)CCCN1C(=O)c2cccc3cccc(c23)C1=O` to `CCc1ccc(-c2cc(C)no2)cc1S(=O)(=O)Nc1cccc(CN2CCCC2)c1`, the “hERG current change (%, negative = inhibition) at 1uM” value falls from 6.25% to 2.74%.

Compared with `Cc1cc(NC(=O)CCCC(=O)O)nc(C)n1`, `CC1(C)Cc2nc3sc(C(=O)NCCCO)c(N)c3cc2CS1` is higher in “hERG current change (%, negative = inhibition) at 1uM” value: 2.11% for the first, 10% for the second.

Compared with `CC1CN(C(=O)c2ccc(Cl)c(S(=O)(=O)NCc3ccco3)c2)CC(C)O1` (stereo not drawn), `O=S(=O)(Cc1ccccc1)NCC1CCCO1` (stereo not drawn) is lower in “hERG current change (%, negative = inhibition) at 1uM” value: 13.5% for the first, -0.43% for the second.

First: CCOC(=O)[C@@]1(C#N)[C@@H]2C=CC(C(N)=O)=CN2[C@@H](C(N)=O)[C@@H]1c1cccc(Cl)c1
Second: COc1cc(OC)cc(C(=O)NC(=S)N(Cc2ccccc2)C(C)C)c1
The “hERG current change (%, negative = inhibition) at 1uM” value of the first is lower: 1.97% for the first, 10.7% for the second.

First: CN1C(=O)CSC1=S
Second: Cc1ccc(C(=O)NCCN2CCCC2)cc1.Cl
The “hERG current change (%, negative = inhibition) at 1uM” value of the first is higher: 13% for the first, 3.56% for the second.

First: CCOC(=O)N1CN(C(=O)OCC)CN(C(=O)OCC)C1
Second: O=C(c1ccc(OC2CCN(CCO)CC2)cc1)N1CCCC1
The “hERG current change (%, negative = inhibition) at 1uM” value of the first is higher: 12.3% for the first, 10.7% for the second.

Going from `CSc1ccc(C2=CC(=O)C[C@H](c3ccc4c(c3)OCO4)C2)cc1` to `CN1CCc2c(sc(NC(=O)c3ccc(S(=O)(=O)N4CCCC4)cc3)c2C(N)=O)C1`, the “hERG current change (%, negative = inhibition) at 1uM” value falls from 11% to 7.47%.

Going from `Cc1ccc2[nH]c3nc(SCCN4CCOCC4)nnc3c2c1` to `CC1(C)[N+]([O-])=C2C(=[N+]([O-])C1(C)C)c1ccccc1/C2=N\O`, the “hERG current change (%, negative = inhibition) at 1uM” value falls from 11.8% to 8.31%.
